{"source": "paper PMC8263776", "key": {"KCNE4-CFP (mouse) [1]": {"biological_target": "T1, KCNE4-CFP (mouse) (UniProt Q9WTW3)", "T1 sequence": "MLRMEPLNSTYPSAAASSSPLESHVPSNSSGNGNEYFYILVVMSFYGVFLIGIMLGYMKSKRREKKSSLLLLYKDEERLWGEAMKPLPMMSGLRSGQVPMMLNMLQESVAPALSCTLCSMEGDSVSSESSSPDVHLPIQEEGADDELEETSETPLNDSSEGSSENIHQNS", "experiment": "co-IP; KCNE4-CFP and KCNE4-HA in HEK-293 lysates in the presence or absence of co-expressed Kv1.3; IP with anti-tag antibody, blots against Kv1.3, KCNE4, GFP or HA"}, "KCNE2WT-CFP (human)": {"biological_target": "T2, KCNE2WT-CFP (human) (UniProt Q9Y6J6)", "T2 sequence": "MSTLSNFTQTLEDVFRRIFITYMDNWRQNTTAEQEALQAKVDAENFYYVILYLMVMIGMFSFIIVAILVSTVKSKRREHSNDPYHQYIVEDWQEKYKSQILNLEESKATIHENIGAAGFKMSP", "experiment": "co-IP; HEK-293 lysates (1% Triton X-100, 150 mM NaCl, 50 mM HEPES pH 7.4); anti-GFP antibody cross-linked to protein A-Sepharose, 2 h at RT; immunoblot against GFP and HA"}, "KCNE4-YFP (mouse) [2]": {"biological_target": "T3, KCNE4-YFP (mouse) (UniProt Q9WTW3)", "T3 sequence": "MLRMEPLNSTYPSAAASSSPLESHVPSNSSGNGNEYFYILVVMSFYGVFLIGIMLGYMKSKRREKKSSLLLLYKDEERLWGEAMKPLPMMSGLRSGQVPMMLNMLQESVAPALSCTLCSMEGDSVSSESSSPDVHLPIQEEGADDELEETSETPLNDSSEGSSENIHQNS", "experiment": "co-IP; HEK-293 lysates (1% Triton X-100, 150 mM NaCl, 50 mM HEPES pH 7.4); anti-GFP antibody cross-linked to protein A-Sepharose, 2 h at RT; immunoblot against GFP and HA"}, "KCNE4-CFP (mouse) [3]": {"biological_target": "T1, KCNE4-CFP (mouse)", "experiment": "co-IP; HEK-293 lysates (1% Triton X-100, 150 mM NaCl, 50 mM HEPES pH 7.4); anti-GFP antibody cross-linked to protein A-Sepharose, 2 h at RT; immunoblot against GFP and HA"}, "[4]": {"biological_target": "T4, KCNE4(L69-72A)-CFP (mouse) (UniProt Q9WTW3)", "T4 sequence": "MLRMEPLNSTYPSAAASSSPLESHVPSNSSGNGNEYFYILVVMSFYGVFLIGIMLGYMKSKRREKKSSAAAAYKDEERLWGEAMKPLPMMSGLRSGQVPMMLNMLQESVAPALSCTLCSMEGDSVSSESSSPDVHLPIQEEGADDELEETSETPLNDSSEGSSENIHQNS", "experiment": "co-IP; HEK-293 lysates (1% Triton X-100, 150 mM NaCl, 50 mM HEPES pH 7.4); anti-GFP antibody cross-linked to protein A-Sepharose, 2 h at RT; immunoblot against GFP and HA"}, "KCNE4-CFP (mouse) [5]": {"biological_target": "T1, KCNE4-CFP (mouse)", "experiment": "native gel or EMSA; non-denaturing SDS-PAGE of total HEK-293 lysates (sample buffer 50 mM Tris-HCl pH 6.8, 10% glycerol; 5% gel with 0.1% SDS), immunoblot anti-GFP"}, "KCNE4-YFP (mouse) [6]": {"biological_target": "T3, KCNE4-YFP (mouse)", "experiment": "FRET or BRET; acceptor photobleaching in fixed HEK-293 cells, CFP donor and YFP acceptor"}, "KCNE4-YFP (mouse) [7]": {"biological_target": "T3, KCNE4-YFP (mouse)", "experiment": "FRET or BRET; acceptor photobleaching of KCNE4-CFP/KCNE4-YFP in fixed HEK-293 cells in the absence or presence of co-expressed Kv1.3 or CaM"}, "KCNE4-HA (mouse)": {"biological_target": "T5, KCNE4-HA (mouse) (UniProt Q9WTW3)", "T5 sequence": "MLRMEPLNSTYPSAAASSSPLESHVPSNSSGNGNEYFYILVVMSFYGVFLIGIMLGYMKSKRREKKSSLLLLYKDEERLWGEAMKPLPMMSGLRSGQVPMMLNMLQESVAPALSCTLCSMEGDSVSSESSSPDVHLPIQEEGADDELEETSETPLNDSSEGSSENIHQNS", "experiment": "co-IP; KCNE4-CFP and KCNE4-HA in HEK-293 lysates in the presence or absence of CaM, with 2 mM Ca2+ or with 2 mM EDTA/2 mM EGTA; anti-HA antibody cross-linked to protein A-Sepharose, 2 h at RT"}, "KCNE4-CFP (mouse) [8]": {"biological_target": "T1, KCNE4-CFP (mouse)", "experiment": "cross-linking; HEK-293 lysates (50 mM boric acid, 100 mM K acetate, 2 mM MgCl2, 1 mM EGTA, 1% Triton X-100, pH 8.5) with or without 5 mM DMP for 1 h; 7% SDS-PAGE, immunoblot against CFP"}, "[9]": {"biological_target": "T4, KCNE4(L69-72A)-CFP (mouse)", "experiment": "native gel or EMSA; non-denaturing SDS-PAGE of total HEK-293 lysates (sample buffer 50 mM Tris-HCl pH 6.8, 10% glycerol; 5% gel with 0.1% SDS), immunoblot anti-GFP"}}, "note": "These are yes or no findings as the source states them, for the method shown. For some assays here: In cells and extracts the contact can be indirect. Some results given as binding are weak or reduced against the parent protein; the word gives no strength. Where a sequence is shown, tags or fusion partners need not be part of it."}
{"binder": "KCNE4-HA (protein, UniProt Q9WTW3 1-170) MLRMEPLNSTYPSAAASSSPLESHVPSNSSGNGNEYFYILVVMSFYGVFLIGIMLGYMKSKRREKKSSLLLLYKDEERLWGEAMKPLPMMSGLRSGQVPMMLNMLQESVAPALSCTLCSMEGDSVSSESSSPDVHLPIQEEGADDELEETSETPLNDSSEGSSENIHQNS", "values": [{"measurement": "binding", "setting": "KCNE4-CFP (mouse) [1]", "result": "binds"}, {"measurement": "binding", "setting": "KCNE2WT-CFP (human)", "result": "no binding"}, {"measurement": "binding", "setting": "KCNE4-YFP (mouse) [2]", "result": "binds"}, {"measurement": "binding", "setting": "KCNE4-CFP (mouse) [3]", "result": "binds"}, {"measurement": "binding", "setting": "[4]", "result": "no binding"}]}
{"binder": "KCNE4-CFP (protein, UniProt Q9WTW3 1-170) MLRMEPLNSTYPSAAASSSPLESHVPSNSSGNGNEYFYILVVMSFYGVFLIGIMLGYMKSKRREKKSSLLLLYKDEERLWGEAMKPLPMMSGLRSGQVPMMLNMLQESVAPALSCTLCSMEGDSVSSESSSPDVHLPIQEEGADDELEETSETPLNDSSEGSSENIHQNS", "values": [{"measurement": "binding", "setting": "KCNE4-CFP (mouse) [5]", "result": "binds"}, {"measurement": "binding", "setting": "KCNE4-YFP (mouse) [6]", "result": "binds"}, {"measurement": "binding", "setting": "KCNE4-YFP (mouse) [7]", "result": "binds"}, {"measurement": "binding", "setting": "KCNE4-HA (mouse)", "result": "binds"}, {"measurement": "binding", "setting": "KCNE4-CFP (mouse) [8]", "result": "binds"}]}
{"binder": "KCNE4(L69-72A)-CFP (protein, UniProt Q9WTW3 1-170) MLRMEPLNSTYPSAAASSSPLESHVPSNSSGNGNEYFYILVVMSFYGVFLIGIMLGYMKSKRREKKSSAAAAYKDEERLWGEAMKPLPMMSGLRSGQVPMMLNMLQESVAPALSCTLCSMEGDSVSSESSSPDVHLPIQEEGADDELEETSETPLNDSSEGSSENIHQNS", "values": [{"measurement": "binding", "setting": "[9]", "result": "no binding"}]}
